± gives the standard deviation. Only a part is listed here, and it is no random draw.
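Also: 1 nM active piRISC with 0.1 nM target library at 33 °C single turnover.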

The first test relates to MIWI (PIWIL1) piRISC loaded with L1MC piRNA (30 nt). The test is described as follows: pre-steady-state target cleavage rate (min^-1); MIWI and MILI are mouse PIWI proteins and EfPiwi is from a freshwater sponge; tags in brackets are library labels; higher = faster piRNA-guided slicing of the target. The conditions noted are these: guide: L1MC piRNA 5'p-UAACUAAAUACUAUGCAAGCUGUAGGUCCU; auxiliary factor: 500 nM mouse GTSF1. The method in brief: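 At 33 °C in HEPES–potassium acetate buffer, a transcribed, DNA-blocked target RNA library […] was exposed for 0–8 or 0–960 min to 1 nM active affinity-purified piRISC carrying a single synthetic guide, with or without 500 nM GTSF1 partner protein. Uncleaved targets were sequenced and normalised to depth and to weakly complementary targets. With three trials pooled and k3 capped at 0.0001 min^-1, a burst-and-steady-state fit produced the pre-steady-state cleavage rate.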
Take UCCUGCAUCAGCUUGCAUAGUAUUUAGUUA: the “pre-steady-state target cleavage rate” value was 1.2 ± 0.066.
Same read-out and setting: under UCCUGGAUGAGCAUGCAUAGUAAUUAGUUA stands 0.102 ± 0.013; under UCCUCCUACAGCUGGCAUAGUAUUUAGUUA, 1.06 ± 0.044; under UCCUGGAUGAGCUUGUCAUAGUAUUUAGUUA, 0.0704 ± 0.009.
On the same count and under the same terms, under UGGACCUACAGGUAGCAUAGUAUUUAGUUA stands 1.08 ± 0.087.
Take UCGACCUACAGCUUGCAUAGUAUUUCGUUA: the “pre-steady-state target cleavage rate” value amounted to 0.562 ± 0.052.
The same measure, in the same setting: next, UCCUGGUACAGCUUGCAUAGUCUUUAGUUA: 0.403 ± 0.052; UCCUGGUACAGCUUGCAUAGAAUUUAGUAA: 0.278 ± 0.078.
UCCUGGAACAGCUUGGAUAGUUUUUAGUUA: the “pre-steady-state target cleavage rate” value amounted to 0.257 ± 0.031.
On the same count and under the same terms, next, UCCUGGAACAGCUUGCAUAGUAUUUAGUGUA: 0.503 ± 0.037; UCCUGGUACAGCUAGCAUAGUAUUUAGAUA: 0.165 ± 0.031; UGCACCUACAGCUUGCAUAGUAUUUUGUUA: 0.852 ± 0.083.
Still for that read-out and setting: under UCCACCUACAGCUUGCAUAGUAUUCUAGUUA stands 0.633 ± 0.067; under UGGACCUACAGGUUGCAUUGUAUUUAGUUA, 0.763 ± 0.05; under UCCUGGAUGAGCUUGCUUAGUAUUUAGAUA, 0.252 ± 0.031.
On the same count and under the same terms, next, UGGACCUAAAGCUUGCAUAGUAUUUAGUUA: 0.879 ± 0.049; UCCUGGAUGAGCUAGCAUAGUAAUUAGUUA: 0.0848 ± 0.0088; UCGAGCUACAGCUUGCAAAGUAUUUAGUUA: 1.17 ± 0.044.
On to UCCUGGAUCAGCUUGCAAAGUAUUUAGAAA, for which the “pre-steady-state target cleavage rate” value worked out at 0.256 ± 0.026.
The same measure, in the same setting: next, UCCUGGAUCAGGUUGCAUAGUAUUUAGUAA: 0.377 ± 0.037.
Same read-out and setting: under UCGAGCUACAGGUUGCAUAGUAUUUAGUUA stands 1 ± 0.049; under UCCUGGUACUGCUUGCAUUGUAUUUAGUUA, 0.182 ± 0.031; under UCGACCUACAGGUUGCAUUGUAUUUAGUUA, 0.922 ± 0.044.
The same measure, in the same setting: under AGGACCUACUGCUUGCAUAGUAUUUAGAAA stands 0.387 ± 0.045.
In the case of UCCUGGAUCAGCGUUGCAUAGUAUUUAGUUA, the “pre-steady-state target cleavage rate” value came to 0.781 ± 0.04.
Same read-out and setting: under UCCUGGAUCAGCUUGCGUAGUAUUUAGUUA stands 1.2 ± 0.064; under UCGACCUACAGCUUGCAAAGUUUUUAGUUA, 0.468 ± 0.022; under UCCUGGUACAGCUUGCAUAGUUUUUACUUA, 0.0344 ± 0.015.
As for UCCUGGAUCAGACUUGCAUAGUAUUUAGUUA, the “pre-steady-state target cleavage rate” value was determined as 0.795 ± 0.048.
On the same count and under the same terms, under UCCUGGAACAGCUUGGAUAGUAUUUAGUAA stands 0.611 ± 0.064; under UCCUCCUACAGCUUGCAUAGUAUUUGAGUUA, 0.48 ± 0.033.
In the case of UCGACCAACAGCUUGCAUAGUAUUUUCAAA, the “pre-steady-state target cleavage rate” value stood at 0.485 ± 0.049.
On the same count and under the same terms, under UCGACUACAGCUUGCAUAGUAUUUAGUUA stands 1.3 ± 0.049; under UCGACCUACAGCUAGCAUAGUAUUUUGUUA, 0.967 ± 0.049.
Still for that read-out and setting: next, UCCACCUACAGCUUGCUUAGAAUUUAGUUA: 0.2 ± 0.025; AGGACCUACAGCUUGCAUACAAUUUAGUUA: 0.0176 ± 0.007; UCCUGGUUCAGCUUGCAUAGAAUUUAGUUA: 0.147 ± 0.032.
Still for that read-out and setting: next, AGGUCCUACAGCUUGCAUAGUAUUUACAAA: 0.428 ± 0.076.
Take UCGACGAUCAGCUUGCAUAGUAUUUACAAA: the “pre-steady-state target cleavage rate” value was 0.415 ± 0.044.
For UCCUGGAUGAGCUUGCAUAGUAUUUAGCUUA, the “pre-steady-state target cleavage rate” value was 0.196 ± 0.043.

The same test, now with this note: guide: L1MC piRNA 5'p-UAACUAAAUACUAUGCAAGCUGUAGGUCCU; auxiliary factor: none (no GTSF1).
On to UCCUGCAUCAGCUUGCAUAGUAUUUAGUUA, for which the “pre-steady-state target cleavage rate” value amounted to 0.0666 ± 0.014.
On to UCCUGGAUGAGCAUGCAUAGUAAUUAGUUA, for which the “pre-steady-state target cleavage rate” value stood at 0.00545 ± 0.0019.
The same measure, in the same setting: under UCCUCCUACAGCUGGCAUAGUAUUUAGUUA stands 0.0176 ± 0.0034; under UCCUGGAUGAGCUUGUCAUAGUAUUUAGUUA, 0.0036 ± 0.0025; under UGGACCUACAGGUAGCAUAGUAUUUAGUUA, 0.00737 ± 0.002.
Take UCGACCUACAGCUUGCAUAGUAUUUCGUUA: the “pre-steady-state target cleavage rate” value came to 0.0485 ± 0.0088.
The same measure, in the same setting: under UCCUGGUACAGCUUGCAUAGUCUUUAGUUA stands 0.0387 ± 0.0077; under UCCUGGUACAGCUUGCAUAGAAUUUAGUAA, 0.0057 ± 0.0033; under UCCUGGAACAGCUUGGAUAGUUUUUAGUUA, 0.03 ± 0.0077.
The same measure, in the same setting: next, UCCUGGAACAGCUUGCAUAGUAUUUAGUGUA: 0.0275 ± 0.005.
Turning to UCCUGGUACAGCUAGCAUAGUAUUUAGAUA, the “pre-steady-state target cleavage rate” value was found to be 0.00468 ± 0.0026.
Same read-out and setting: under UGCACCUACAGCUUGCAUAGUAUUUUGUUA stands 0.0692 ± 0.015; under UCCACCUACAGCUUGCAUAGUAUUCUAGUUA, 0.0214 ± 0.0052; under UGGACCUACAGGUUGCAUUGUAUUUAGUUA, 0.0199 ± 0.0053.
Still for that read-out and setting: next, UCCUGGAUGAGCUUGCUUAGUAUUUAGAUA: 0.00866 ± 0.0032.
Turning to UGGACCUAAAGCUUGCAUAGUAUUUAGUUA, the “pre-steady-state target cleavage rate” value stood at 0.0413 ± 0.0088.
On the same count and under the same terms, next, UCCUGGAUGAGCUAGCAUAGUAAUUAGUUA: 0.00519 ± 0.0024.
Still for that read-out and setting: under UCGAGCUACAGCUUGCAAAGUAUUUAGUUA stands 0.0367 ± 0.0083.
The same measure, in the same setting: next, UCCUGGAUCAGCUUGCAAAGUAUUUAGAAA: 0.00556 ± 0.0027; UCCUGGAUCAGGUUGCAUAGUAUUUAGUAA: 0.00556 ± 0.0026.
As to UCGAGCUACAGGUUGCAUAGUAUUUAGUUA, the “pre-steady-state target cleavage rate” value is 0.0349 ± 0.0061.
On the same count and under the same terms, under UCCUGGUACUGCUUGCAUUGUAUUUAGUUA stands 0.0142 ± 0.0034.
The same measure, in the same setting: under UCGACCUACAGGUUGCAUUGUAUUUAGUUA stands 0.0147 ± 0.003; under AGGACCUACUGCUUGCAUAGUAUUUAGAAA, 0.0229 ± 0.0055; under UCCUGGAUCAGCGUUGCAUAGUAUUUAGUUA, 0.0189 ± 0.005.
The same measure, in the same setting: next, UCCUGGAUCAGCUUGCGUAGUAUUUAGUUA: 0.022 ± 0.0054; UCGACCUACAGCUUGCAAAGUUUUUAGUUA: 0.0152 ± 0.0031.
UCCUGGUACAGCUUGCAUAGUUUUUACUUA: the “pre-steady-state target cleavage rate” value stood at 0.00569 ± 0.0026.
Still for that read-out and setting: next, UCCUGGAUCAGACUUGCAUAGUAUUUAGUUA: 0.0245 ± 0.0063; UCCUGGAACAGCUUGGAUAGUAUUUAGUAA: 0.0288 ± 0.0068; UCCUCCUACAGCUUGCAUAGUAUUUGAGUUA: 0.0177 ± 0.0041.
Still for that read-out and setting: next, UCGACCAACAGCUUGCAUAGUAUUUUCAAA: 0.00402 ± 0.0023.
Same read-out and setting: under UCGACUACAGCUUGCAUAGUAUUUAGUUA stands 0.0713 ± 0.012; under UCGACCUACAGCUAGCAUAGUAUUUUGUUA, 0.013 ± 0.0031.
As for UCCACCUACAGCUUGCUUAGAAUUUAGUUA, the “pre-steady-state target cleavage rate” value was found to be 0.00583 ± 0.0018.
Same read-out and setting: next, AGGACCUACAGCUUGCAUACAAUUUAGUUA: 0.00379 ± 0.0032.
On the same count and under the same terms, next, UCCUGGUUCAGCUUGCAUAGAAUUUAGUUA: 0.025 ± 0.0067; AGGUCCUACAGCUUGCAUAGUAUUUACAAA: 0.00841 ± 0.003; UCGACGAUCAGCUUGCAUAGUAUUUACAAA: 0.00606 ± 0.0021.
On to UCCUGGAUGAGCUUGCAUAGUAUUUAGCUUA, for which the “pre-steady-state target cleavage rate” value was 0.0368 ± 0.0079.

(Values after the supplement of paper PMC10338343.)
